Data published in the supplement of paper PMC7125110.
± gives the standard error. This sample is rich in variants without activity.

B1: glmS ribozyme (parent)
chain: AUAAAAGCGCCAGAACUACAGAAAUGUAGUUGACGAGGAGGAGGUUUAUCGAAUUUUCGGCGGAUGCCUCCAAA

Legend:
Conditions in all cases: with glucosamine-6-phosphate
glucosamine-6-phosphate [1] = variants of: B1; assay: self-cleavage kobs at 40 uM GlcN6P; higher = faster cleavage; RNA array
Outline: (§1)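 Barcoded ribozyme variants, transcribed in situ by E. coli RNA polymerase on sequenced MiSeq chips, were followed via a hybridised Cy3 probe at 37 °C. Glucosamine-6-phosphate ranged from 40 μM to 10 mM in HEPES/KCl/Mg(OAc)2 buffer. kobs came from decay fits to per-tile medians, and kcat and KM from weighted Michaelis–Menten fits.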

glucosamine-6-phosphate [2] = variants of: B1; assay: self-cleavage kobs at 10000 uM GlcN6P; higher = faster cleavage; RNA array
Outline: as §1

glucosamine-6-phosphate [3] = variants of: B1; assay: self-cleavage kobs at 640 uM GlcN6P; higher = faster cleavage; RNA array
Outline: as §1

glucosamine-6-phosphate [4] = variants of: B1; assay: self-cleavage kobs at 160 uM GlcN6P; higher = faster cleavage; RNA array
Outline: as §1

glucosamine-6-phosphate [5] = variants of: B1; assay: self-cleavage kobs at 2500 uM GlcN6P; higher = faster cleavage; RNA array
Outline: as §1

Variant	self-cleavage kobs at 40 uM GlcN6P (glucosamine-6-phosphate [1]) [s⁻¹]	self-cleavage kobs at 10000 uM GlcN6P (glucosamine-6-phosphate [2]) [s⁻¹]	self-cleavage kobs at 640 uM GlcN6P (glucosamine-6-phosphate [3]) [s⁻¹]	self-cleavage kobs at 160 uM GlcN6P (glucosamine-6-phosphate [4]) [s⁻¹]	self-cleavage kobs at 2500 uM GlcN6P (glucosamine-6-phosphate [5]) [s⁻¹]
C8A U31C C34U A39C U57A	< 1e-05	< 1e-05			
C8A U45G	< 1e-05	< 1e-05	< 1e-05	< 1e-05	< 1e-05
C8A U46G G60A C67G	< 1e-05		< 1e-05	< 1e-05	
C8A U47C U65A	< 1e-05				
C8A U55C	< 1e-05	< 1e-05			
C8A U56C	< 1e-05	< 1e-05	< 1e-05	< 1e-05	< 1e-05
C8G A12C A15G U30G G38A U46C	< 1e-05				
C8G A12U G37A G44U	< 1e-05	< 1e-05			
C8G A14G	< 1e-05	< 1e-05	< 1e-05	< 1e-05	< 1e-05
C8G A14U	< 1e-05	< 1e-05	< 1e-05	< 1e-05	
C8G A14U A42G C70G	< 1e-05	< 1e-05			
C8G A15U U30A U47G	< 1e-05		< 1e-05		< 1e-05
C8G A33G	< 1e-05	< 1e-05	< 1e-05	< 1e-05	< 1e-05
C8G A36U G38C C58A	< 1e-05		< 1e-05		
C8G A48G U54A	< 1e-05	< 1e-05			< 1e-05
C8G A48U	< 1e-05	< 1e-05	< 1e-05	< 1e-05	< 1e-05
C8G A52C	< 1e-05	< 1e-05			
C8G A52U	< 1e-05	< 1e-05	< 1e-05	< 1e-05	< 1e-05
C8G A64C	< 1e-05	< 1e-05		< 1e-05	< 1e-05
C8G C11G U30C C34G G44U G62A	< 1e-05				
C8G C16A G51C C61U C68U	< 1e-05		< 1e-05		
C8G C16U U55G A64U	< 1e-05	< 1e-05			
C8G C34U U56G	< 1e-05	< 1e-05	< 1e-05		

Variant	self-cleavage kobs at 40 uM GlcN6P (glucosamine-6-phosphate [1]) [s⁻¹]	self-cleavage kobs at 10000 uM GlcN6P (glucosamine-6-phosphate [2]) [s⁻¹]	self-cleavage kobs at 640 uM GlcN6P (glucosamine-6-phosphate [3]) [s⁻¹]	self-cleavage kobs at 160 uM GlcN6P (glucosamine-6-phosphate [4]) [s⁻¹]	self-cleavage kobs at 2500 uM GlcN6P (glucosamine-6-phosphate [5]) [s⁻¹]
C8G C50G C67A	0.000144 ± 2.5e-05	0.000113 ± 1.8e-05			
C8G C61U	< 1e-05	< 1e-05	< 1e-05	< 1e-05	< 1e-05
C8G C67A	< 1e-05	< 1e-05	< 1e-05	< 1e-05	< 1e-05
C8G C68A	< 1e-05	< 1e-05	< 1e-05	< 1e-05	< 1e-05
C8G G9A	< 1e-05				< 1e-05
C8G G9U C10U U56G	< 1e-05				
C8G G13A G35C G51A	< 1e-05	< 1e-05			< 1e-05
C8G G13C	< 1e-05	< 1e-05	< 1e-05	< 1e-05	< 1e-05
C8G G13C U31G G32A G66U	< 1e-05	< 1e-05			< 1e-05
C8G G13U G51C A64G	< 1e-05				
C8G G13U U31C C70U	< 1e-05				
C8G G32A	< 1e-05	< 1e-05	< 1e-05	< 1e-05	< 1e-05
C8G G32C	< 1e-05			< 1e-05	< 1e-05
C8G G32C G40U	< 1e-05	< 1e-05			< 1e-05
C8G G32C G62U	< 1e-05	< 1e-05			
C8G G37A A42U G44A	< 1e-05		< 1e-05		
C8G G40U G62U	< 1e-05	< 1e-05			
C8G G41C	< 1e-05	< 1e-05	< 1e-05	< 1e-05	< 1e-05
C8G G43A G59A G60U	< 1e-05				
C8G G43U U65A C71G	< 1e-05				
C8G G51C	< 1e-05	< 1e-05	< 1e-05		
C8G G51U A64G	< 1e-05				
C8G G60U	< 1e-05	< 1e-05		< 1e-05	< 1e-05
